# The whole screen tested about 310,000 compounds, of which about 2,200 (0.71%) showed an effect of 50% or more. Effects have a minus sign here. This is one part of the list.
# Target: human ether-à-go-go-related gene (hERG) potassium channel (human, UniProt Q12809)
# Experiment: primary screen, population patch clamp on CHO cells stably expressing hERG
# human ether-à-go-go-related gene (hERG) potassium channel, sequence (Q12809 whole entry, looked up): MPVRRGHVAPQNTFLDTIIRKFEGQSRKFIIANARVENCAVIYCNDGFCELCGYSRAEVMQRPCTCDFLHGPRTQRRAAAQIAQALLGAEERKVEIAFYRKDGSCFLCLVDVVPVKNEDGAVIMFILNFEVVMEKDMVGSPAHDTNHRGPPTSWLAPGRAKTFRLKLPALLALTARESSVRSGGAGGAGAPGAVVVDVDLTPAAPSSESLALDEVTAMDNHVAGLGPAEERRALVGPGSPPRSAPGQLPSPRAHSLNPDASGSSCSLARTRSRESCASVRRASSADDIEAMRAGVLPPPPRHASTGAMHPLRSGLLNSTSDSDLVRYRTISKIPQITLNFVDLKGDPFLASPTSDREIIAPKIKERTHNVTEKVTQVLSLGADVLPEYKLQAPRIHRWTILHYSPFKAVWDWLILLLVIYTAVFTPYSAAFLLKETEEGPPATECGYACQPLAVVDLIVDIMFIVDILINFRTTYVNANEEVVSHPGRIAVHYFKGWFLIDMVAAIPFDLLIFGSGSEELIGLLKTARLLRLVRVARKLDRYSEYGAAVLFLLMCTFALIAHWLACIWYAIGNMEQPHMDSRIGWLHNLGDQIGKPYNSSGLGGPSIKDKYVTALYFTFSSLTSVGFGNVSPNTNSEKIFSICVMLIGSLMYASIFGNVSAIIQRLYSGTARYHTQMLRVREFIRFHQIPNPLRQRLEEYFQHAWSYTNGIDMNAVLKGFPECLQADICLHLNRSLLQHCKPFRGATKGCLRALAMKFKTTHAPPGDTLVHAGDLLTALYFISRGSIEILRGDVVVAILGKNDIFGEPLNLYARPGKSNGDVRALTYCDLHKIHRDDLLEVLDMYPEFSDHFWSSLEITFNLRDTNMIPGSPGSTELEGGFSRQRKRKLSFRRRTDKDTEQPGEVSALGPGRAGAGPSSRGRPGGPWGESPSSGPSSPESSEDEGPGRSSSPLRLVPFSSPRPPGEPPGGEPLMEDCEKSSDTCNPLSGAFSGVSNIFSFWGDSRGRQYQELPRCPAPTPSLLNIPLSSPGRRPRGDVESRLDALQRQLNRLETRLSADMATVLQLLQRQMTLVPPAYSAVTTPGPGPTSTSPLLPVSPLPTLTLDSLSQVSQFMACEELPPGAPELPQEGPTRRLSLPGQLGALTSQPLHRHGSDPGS
row,Compound,"hERG current change (%, negative = inhibition) at 1uM"
1,CSc1ncccc1C(=O)NCC(=O)Nc1ccc(F)c(F)c1,12.1%
2,COc1ccccc1-c1csc(Cc2nnc3n2CCCCC3)n1,1.85%
3,Cc1cccc(OCC(=O)Nc2ccc(S(=O)(=O)N3CCN(C)CC3)cc2)c1,16.5%
4,COC(=O)c1cc2ccsc2n1Cc1cccc(F)c1,-4.33%
5,CCOc1ccc2ccccc2c1C(=O)NCC(c1ccc(N(C)C)cc1)N(C)C (centres unmarked),0.466%
6,NC(=O)CC(NC(=O)c1ccccc1)c1ccc(NC2CCC2)c([N+](=O)[O-])c1 (centres unmarked),-4.98%
7,Cc1cc2n(n1)C(c1ccccc1)CC(c1ccc(Br)cc1)=N2 (centres unmarked),5.15%
8,C/C(=N\OCC(=O)OCC(=O)Nc1cc(S(C)(=O)=O)ccc1Cl)c1ccc2c(c1)OCO2,3.95%
9,NC(=O)[C@H]1CC2(CC(c3cccc(NC(=O)COc4ccc(Cl)cc4)c3)=NO2)CN1C(=O)c1ccccc1C(=O)c1ccccc1 (some centres unmarked),4.27%
10,Cc1cc(C)nc(N/N=C/c2ccncc2)n1,14%
11,Cc1ccc(C2C(=O)N(C3CCCC3)CC(=O)N2CC2COc3ccccc3O2)cc1 (centres unmarked),-8.04%
12,Cc1ccc(-c2noc(C3CCCN(C(=O)c4c(F)cccc4F)C3)n2)cc1 (centres unmarked),-4.71%
13,Cc1cc(C(=O)OCC(=O)NCc2ccc(Cl)cc2Cl)c(C)o1,11.2%
14,CCOC(=O)c1ccc(N=C(C)c2c(O)[nH]c(=O)[nH]c2=O)cc1,16.9%
15,CCOC(=O)N1CCN(C(=O)c2ccc3c(c2)N(Cc2cc(C)ccc2C)C(=O)c2ccccc2S3=O)CC1 (centres unmarked),15.3%
16,O=C(Nc1sc2c(c1C(=O)NCc1ccco1)CCCC2)c1ccc2c(c1)OCO2,9.83%
17,CNc1nc(N2CCc3ccccc32)ncc1F,4.07%
18,Cc1cccc(C)c1NC(=S)NNc1ncc(C(F)(F)F)cc1Cl,12.3%
19,COC(=O)c1ccccc1NC(=O)C1CC(=O)N(c2ccc(C)cc2)C1 (centres unmarked),-13.5%
20,Cc1ccccc1OCC(=O)NC(=S)Nc1ccc2c3c(cccc13)CC2,25.4%
21,CCOC(=O)N1CCC(NS(=O)(=O)c2ccccc2)CC1,4.15%
22,Cc1onc(-c2ccccc2Cl)c1C(=O)Nc1nc2c(s1)CCCC2,18.1%

row,Compound,"hERG current change (%, negative = inhibition) at 1uM"
1,O=C(NCc1ccco1)c1cc2cc(Br)ccc2o1,15.2%
2,COc1ccc(OC)c(NC(=O)c2nnn(Cc3ccccc3C)c2N)c1,17%
3,Cc1ccc(-n2nc3c(c2NC(=O)c2ccc(OC(C)C)cc2)CS(=O)C3)cc1 (centres unmarked),9.66%
4,CCOC(=O)C1=C(CS(=O)(=O)c2ccc(F)cc2)NC(=O)NC1c1cc(OC)c(O)c(OC)c1 (centres unmarked),19.4%
5,Cc1cccc(NC(=O)c2ccc3c(=O)n4c(nc3c2)CCCCC4)n1,-28.4%
6,COc1ccc(N2CCN(C(=O)CN(C)S(=O)(=O)c3cc(C)ccc3OC)CC2)cc1,6.01%
7,O=C(NNC(=O)c1cccs1)c1ccc(Br)cc1,21.5%
8,O=C1C(Br)=Cc2cccc3cccc1c23,11.8%
9,O=C(OCc1cc2ccccc2[nH]c1=O)c1ccc([N+](=O)[O-])cc1,5.34%
10,CCOCCCNC(=O)C(c1ccc(Cl)cc1)N1CCN(c2ccccc2)CC1 (centres unmarked),14.7%
11,CCOc1ccccc1CN1CCN(CC2=Cc3cc(OC)ccc3OC2)CC1CCO (centres unmarked),-46.3%
12,COc1ccccc1NC(=O)CN1CCC(c2nc3ccc(C)cc3[nH]2)CC1,-15.8%
13,Clc1ccccc1Cn1nnc2c(N3CCOCC3)nc(C3CC3)nc21,11.9%
14,COc1ccccc1/C=C1/C(=O)N(c2ccc([N+](=O)[O-])cc2)N=C1C,13.8%
15,COc1ccc(-c2nc(N)ncc2-c2csc(C)n2)c(O)c1OC,10%
16,COc1ccc(N2CCN(C(=O)CCc3nc(-c4ccc(C)cc4)no3)CC2)cc1,4.74%
17,O=C(NC1CCCC1)C(c1ccncc1)N(C(=O)c1ccco1)c1ccc(F)c(Cl)c1 (centres unmarked),12.9%
18,Cc1cccc(OCC(=O)N2CCN(C(=O)CCC3CCCC3)CC2)c1,-17.1%
19,CCN(CC)S(=O)(=O)c1cccc(C(=O)N/N=C2\CC(=O)CC(C)(C)C2)c1,18.7%
20,COCCNC(=O)Cn1nc(-c2ccccc2OC)ccc1=O,19.7%
21,COc1ccc(OC)c(C2C(C(C)=O)=C(O)C(=O)N2CCc2ccc(OC)c(OC)c2)c1 (centres unmarked),-8.33%
22,CC(Nc1nc(N2CCNCC2)nc2ccccc12)c1ccccc1 (centres unmarked),-31.7%

row,Compound,"hERG current change (%, negative = inhibition) at 1uM"
1,COc1ccc(CCNC(=O)CSC(=O)c2ccccc2)cc1OC,1.07%
2,Cc1ccc(C(C)C)c(OCC(O)CNC2CCCC2)c1.Cl (centres unmarked),-11.5%
3,CN(Cc1cccc2cnccc12)C(=O)CCc1nnc(CCc2ccccc2)o1,-5.46%
4,O=C(CCCn1c(=O)c2ccccc2n(CC(=O)NCc2ccco2)c1=O)NCc1ccco1,11.4%
5,COc1cccc(Nc2nnc(SCn3nnc4ccccc4c3=O)s2)c1,11%
6,Cc1ccc(CNS(=O)(=O)c2ccc3c(c2)n(C)c(=O)n3C)cc1,11.2%
7,CN(CC(=O)Nc1ccccc1C(=O)N1CCCC1)S(=O)(=O)c1ccc(Cl)cc1,-9.34%
8,Cn1c(SCC(=O)N2CCCCC2)nc2c([nH]c3ccccc32)c1=O,5.1%
9,Cc1ccc(-c2ccc(/C=C(\C#N)C(N)=S)n2C)cc1,16.6%
10,COc1cccc(/C=C/C(=O)OCCN2C(=O)c3ccccc3C2=O)c1,12%
11,Cc1cc(C)nc(/N=C(/NC(=O)Nc2cccc(Cl)c2)Nc2ccccc2)n1,22%
12,NS(=O)(=O)c1ccc(CCNC(=O)c2ccc(Cl)cc2[N+](=O)[O-])cc1,13.6%
13,O=C(c1ccco1)N1CCN(Cc2cc(=O)c(OCc3ccccc3F)co2)CC1,0.103%
14,COc1cccc(NC(=O)N2CCCC2C(=O)NC2CCCCC2)c1 (centres unmarked),10.8%
15,CC(C)CN1CCN(Cc2cnc(N3CCOCC3)s2)CC1CCO (centres unmarked),4.61%
16,Cc1ccc(-c2cc(C(=O)N3CCCCCC3)no2)cc1,10%
17,O=C(NCc1cccnc1)c1cc2nc(-c3cccs3)cc(C(F)(F)Cl)n2n1,-19.8%
18,Clc1ccc(CO/N=C2\CCCc3nonc32)cc1,12.1%
19,Cc1ccc(OCC(=O)NNC(=O)C(C)Sc2ncnc3sc(C)c(C)c23)cc1 (centres unmarked),12.5%
20,Cc1cc(C(=O)Nc2nc3c(s2)CCCC3)no1,5.45%
21,COc1ccc(Cl)cc1S(=O)(=O)n1ccnc1C(C)C,7.93%
22,CC(C)(C)c1csc(NC(=O)CSc2nc3ccccc3c(=O)[nH]2)n1,7.87%

row,Compound,"hERG current change (%, negative = inhibition) at 1uM"
1,CCOc1ccc(N2C(=O)C3Sc4[nH]c(=O)sc4C(c4ccc(OC)c(OC)c4)C3C2=O)cc1 (centres unmarked),6.03%
2,O=C(N/N=C/c1cccc(Cl)c1)C(c1ccncc1)N1CCOCC1 (centres unmarked),13.9%
3,COc1ccc(C2CC(=O)C(C(c3ccc(O)cc3)C3C(=O)CC(c4ccc(OC)cc4)CC3=O)C(=O)C2)cc1 (centres unmarked),6.73%
4,O=C(c1cccc(-c2ccc(O)cc2)c1)N1CCOCC1,9.2%
5,COc1ccc(Cl)cc1C(=O)Nc1ccc2nc3n(c(=O)c2c1)CCCC3,-51.8%
6,Cc1ccc(S(=O)(=O)NCC(=O)N(CC(=O)NCC2CCCO2)Cc2ccco2)cc1 (centres unmarked),11.6%
7,Cc1ccc(N2C(=O)C(Cl)=C(N3CCCCCC3)C2=O)c(C)c1,19.2%
8,O=C(c1cccc(Cl)c1)N1CCC(N2CCC(C(=O)N3CCCC3)CC2)CC1,-17.2%
9,CC1=C[C@@H]2c3cccc4[nH]cc(c34)C[C@H]2N(C)C1,11.2%
10,CCOP(=O)(OCC)C(NC(=O)CC(C)C)C(Cl)(Cl)Cl (centres unmarked),16.4%
11,C/C(=N\NC(=O)c1ccc(F)cc1)c1ccccn1,15%
12,Cc1cccc(C)c1OCC(=O)NNC(=O)c1ccoc1C,2.33%
13,Cc1ccc(S(=O)(=O)c2nc(S(C)(=O)=O)sc2N2CCCCC2C)cc1 (centres unmarked),5.68%
14,O=C(O)CSc1ccc(NC(=O)Nc2ccccc2F)cc1,16.1%
15,COc1ccc(N2CCN(C(=O)CN(C3CCCCC3)S(C)(=O)=O)CC2)cc1,7.1%
16,CC1CCN(C(=O)N[C@@H](Cc2ccccc2)C(=O)O)CC1,17.9%
17,O=C(CSc1nnc(-c2ccc(S(=O)(=O)N3CCCC3)cc2)n1CC1CCCO1)NC1CC1 (centres unmarked),-2.9%
18,O=C(CCS(=O)(=O)c1ccc(Br)cc1)Nc1ccc(Cl)cc1F,11%
19,CN(C(=O)c1ccccc1)c1nccnc1C#N,6.67%
20,Cn1c(N)c(C(=O)COC(=O)c2ccccc2C(=O)c2ccccc2)c(=O)n(C)c1=O,-0.867%

# From paper PMC4336329 (PLoS ONE, 2015)
